According to US10299477B2 (priority 2015, dated 2019):

How the values were obtained:
Assay type in all cases: in vivo
Botrytis cinerea = assay: Test Example B: Gray mold on tomato; details: gray mold on tomato, Botrytis cinerea; 250 ppm spray
Source text: [Test Example B] Gray Mold on Tomato
Seeds of a test plant (tomato variety: Oogata Fukuju) were planted followed by cultivating until three to five first leaves (true leaves) appeared.

[1] = test system: Blumeria graminis f sp. hordei; assay: Test Example D: Powdery mildew on barley; details: powdery mildew on barley; 250 ppm spray
Source text: [Test Example D] Powdery Mildew on Barley
After the sprayed dilutions were dried, conidia of Blumeria graminis f sp. hordei were inoculated to the plants by shaking off.

Puccinia recondita = assay: Test Example E: Brown rust on wheat; details: brown rust on wheat, Puccinia recondita; 250 ppm spray
Source text: [Test Example E] Brown Rust on Wheat

Plasmopara viticola = assay: Test Example G: Downy mildew on vine; details: downy mildew on vine, Plasmopara viticola; 250 ppm spray, 7-10 days after inoculation
Source text: [Test Example G] Downy Mildew on Vine
Seeds of a test plant (grape variety: Neomuscat) were planted followed by cultivating until three to four first leaves appeared. […] After the sprayed dilutions were dried, a zoosporangia suspension (1-2×10^4 zoosporangia/ml) of Plasmopara viticola was inoculated to the plants by spraying.

Alternaia brassicicola = assay: Test Example C: Alternaria sooty spot on cabbage; details: Alternaria sooty spot on cabbage; 250 ppm spray
Source text: [Test Example C] Alternaria Sooty Spot on Cabbage
Seeds of a test plant (cabbage variety: Shikidori) were planted followed by cultivating until the cotyledons extended.

SMILES	Test B (control value class) (Botrytis cinerea)	Test D (control value class) [1]	Test E (control value class) (Puccinia recondita)	Test G (control value class) (Plasmopara viticola)	Test C (control value class) (Alternaia brassicicola)
CCn1c(-c2c(F)cc(OC)cc2F)c(-c2cc(F)ccc2F)cc(Cl)c1=O [Compound 469]	H (H shows more than 50% of control values)	H (H shows more than 50% of control values)	H (H shows more than 50% of control values)	L (L shows 50% or less of control values)	H (H shows more than 50% of control values)
CCn1c(-c2c(F)cccc2F)c(-c2cc(Cl)ccc2Cl)cc(C)c1=O [Compound 470]	H (H shows more than 50% of control values)	H (H shows more than 50% of control values)	H (H shows more than 50% of control values)	H (H shows more than 50% of control values)	H (H shows more than 50% of control values)
Cc1cc(-c2cc(Cl)ccc2Cl)c(-c2c(F)cccc2F)n(C)c1=O [Compound 471]	H (H shows more than 50% of control values)	H (H shows more than 50% of control values)	H (H shows more than 50% of control values)	H (H shows more than 50% of control values)	H (H shows more than 50% of control values)
CCn1c(-c2c(F)cccc2F)c(-c2cccc(Cl)c2F)ccc1=O [Compound 472]	H (H shows more than 50% of control values)	H (H shows more than 50% of control values)	H (H shows more than 50% of control values)	H (H shows more than 50% of control values)	H (H shows more than 50% of control values)
Cn1c(-c2c(F)cccc2F)c(-c2cccc(Cl)c2F)ccc1=O [Compound 474]	H (H shows more than 50% of control values)	H (H shows more than 50% of control values)	H (H shows more than 50% of control values)	L (L shows 50% or less of control values)	H (H shows more than 50% of control values)
CCn1c(-c2c(F)cc(OC)cc2F)c(-c2cc(F)ccc2Cl)cc(Br)c1=O [Compound 476, 3-bromo-5-(2-chloro-5-fluorophenyl)-6-(2,6-difluoro-4-methoxyphenyl)-1-ethylpyridine-2(1H)-one]	H (H shows more than 50% of control values)	H (H shows more than 50% of control values)	H (H shows more than 50% of control values)	L (L shows 50% or less of control values)	H (H shows more than 50% of control values)
CCN1C(=O)CCC(c2cc(F)ccc2F)=C1c1c(F)cccc1F [Compound 477]	H (H shows more than 50% of control values)	H (H shows more than 50% of control values)	H (H shows more than 50% of control values)	L (L shows 50% or less of control values)	H (H shows more than 50% of control values)
CCn1c(-c2c(F)cccc2F)c(-c2cc(F)ccc2F)ccc1=O [Compound 478]	H (H shows more than 50% of control values)	H (H shows more than 50% of control values)	H (H shows more than 50% of control values)	H (H shows more than 50% of control values)	H (H shows more than 50% of control values)
CCn1c(-c2c(F)cc(OC)cc2F)c(-c2cc(F)ccc2Cl)cc(C)c1=O [Compound 479]	H (H shows more than 50% of control values)	H (H shows more than 50% of control values)	H (H shows more than 50% of control values)	H (H shows more than 50% of control values)	H (H shows more than 50% of control values)
CN1C(=O)CCC(c2cc(F)ccc2F)=C1c1c(F)cccc1F [Compound 480]	H (H shows more than 50% of control values)	L (L shows 50% or less of control values)	L (L shows 50% or less of control values)	L (L shows 50% or less of control values)	L (L shows 50% or less of control values)
CCn1c(-c2c(F)cccc2F)c(-c2cc(F)ccc2F)cc(Cl)c1=O [Compound 481]	H (H shows more than 50% of control values)	H (H shows more than 50% of control values)	H (H shows more than 50% of control values)	L (L shows 50% or less of control values)	H (H shows more than 50% of control values)
CCn1c(-c2c(F)cccc2F)c(-c2cc(F)ccc2F)cc(Br)c1=O [Compound 482]	L (L shows 50% or less of control values)	L (L shows 50% or less of control values)	H (H shows more than 50% of control values)	L (L shows 50% or less of control values)	H (H shows more than 50% of control values)
Cn1c(-c2c(F)cccc2F)c(-c2cc(F)ccc2F)ccc1=O [Compound 483]	H (H shows more than 50% of control values)	H (H shows more than 50% of control values)	H (H shows more than 50% of control values)	H (H shows more than 50% of control values)	H (H shows more than 50% of control values)
Cn1c(-c2c(F)cccc2F)c(-c2cc(F)ccc2F)cc(Cl)c1=O [Compound 484]	H (H shows more than 50% of control values)	H (H shows more than 50% of control values)	H (H shows more than 50% of control values)	H (H shows more than 50% of control values)	H (H shows more than 50% of control values)
Cn1c(-c2c(F)cccc2F)c(-c2cc(F)ccc2F)cc(Br)c1=O [Compound 485]	H (H shows more than 50% of control values)	H (H shows more than 50% of control values)	H (H shows more than 50% of control values)	L (L shows 50% or less of control values)	H (H shows more than 50% of control values)
CCn1c(-c2c(F)cc(F)cc2F)c(-c2cccc(F)c2Cl)ccc1=O [Compound 486]	H (H shows more than 50% of control values)	H (H shows more than 50% of control values)	H (H shows more than 50% of control values)	H (H shows more than 50% of control values)	H (H shows more than 50% of control values)
CCn1c(-c2c(F)cc(F)cc2F)c(-c2cccc(F)c2Cl)cc(Br)c1=O [Compound 487]	H (H shows more than 50% of control values)	H (H shows more than 50% of control values)	H (H shows more than 50% of control values)	L (L shows 50% or less of control values)	H (H shows more than 50% of control values)
CCn1c(-c2c(F)cc(F)cc2F)c(-c2cccc(F)c2Cl)cc(Cl)c1=O [Compound 488]	H (H shows more than 50% of control values)	H (H shows more than 50% of control values)	H (H shows more than 50% of control values)	L (L shows 50% or less of control values)	H (H shows more than 50% of control values)
CCn1c(-c2c(F)cc(OC)cc2F)c(-c2cccc(F)c2Cl)ccc1=O [Compound 489]	H (H shows more than 50% of control values)	H (H shows more than 50% of control values)	H (H shows more than 50% of control values)	H (H shows more than 50% of control values)	H (H shows more than 50% of control values)
CCn1c(-c2c(F)cc(OC)cc2F)c(-c2cccc(F)c2Cl)cc(Cl)c1=O [Compound 490]	H (H shows more than 50% of control values)	H (H shows more than 50% of control values)	H (H shows more than 50% of control values)	L (L shows 50% or less of control values)	H (H shows more than 50% of control values)
